Experimental data taken from the supplement of paper PMC4967469.
pIC50: −log10 of the molar value. By IC50 is meant the dose at which the fit gives 50% viability; a fit beyond the top or the lowest dose is shown as a bound at that dose. AUC sums up the same curve from the lowest dose to the 256-fold higher top dose; it is 1 without any effect and falls as sensitivity rises. For some assays here: The top dose, if marked as inferred, is not printed in the source and was worked back from the curve model.

Key:
Assay in all cases: Viability of human cancer cell lines after 72 h of drug (GDSC screen)
[1] = compound: C#Cc1cccc(Nc2ncnc3cc(OCCOC)c(OCCOC)cc23)c1 [Erlotinib]; details: top dose 2 µM
Description: (§1)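 Human cancer cell lines in 384-well plates, medium with 10% serum, drug for 72 h over a 256-fold dose range (nine 2-fold or five 4-fold steps up to the top dose). Adherent lines were fixed and stained with the nucleic acid dye Syto60, suspension lines read with resazurin; signal relative to control wells, capped at 0 and 100%. One two-parameter sigmoid per drug and line, fitted in a mixed model over all curves with the slope shared within a line.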

[2] = compound: N=C(N)NC(=N)NCCc1ccccc1 [Phenformin]; details: top dose 4000 µM; top dose inferred
Description: as §1

[3] = compound: CCC1=C[C@@H]2CN(C1)Cc1c([nH]c3ccccc13)[C@@](C(=O)OC)(c1cc3c(cc1OC)N(C)[C@H]1[C@@](O)(C(=O)OC)[C@H](OC(C)=O)[C@]4(CC)C=CCN5CC[C@]31[C@@H]54)C2 [Vinorelbine]; details: top dose 0.064 µM; top dose inferred
Description: as §1

[4] = compound: COc1cc2nccc(Oc3ccc(NC(=O)C4(C(=O)Nc5ccc(F)cc5)CC4)cc3)c2cc1OC [XL-184]; details: top dose 5.12 µM; top dose inferred
Description: as §1

[5] = compound: O=c1cc(N2CCOCC2)oc2c(-c3cccc4c3sc3ccccc34)cccc12 [NU-7441]; details: top dose 2 µM; top dose inferred
Description: as §1

[6] = compound: COc1cc2ncnc(Nc3cc(Br)c(O)c(Br)c3)c2cc1OC [WHI-P97]; details: top dose 10.24 µM; top dose inferred
Description: as §1

[7] = compound: O=c1cc(CN2CCOCC2)occ1OCCCCCSc1ccnc2cc(C(F)(F)F)ccc12 [EHT 1864]; details: top dose 10 µM; top dose inferred
Description: as §1

[8] = compound: CNCc1ccc(-c2[nH]c3cc(F)cc4c3c2CCNC4=O)cc1 [AG-014699]; details: top dose 5 µM; top dose inferred
Description: as §1

[9] = compound: N[C@@H](CSC(c1ccccc1)(c1ccccc1)c1ccccc1)C(=O)O [S-Trityl-L-cysteine]; details: top dose 5.12 µM; top dose inferred
Description: as §1

[10] = compound: COc1cc2ncnc(Nc3ccc(F)c(Cl)c3)c2cc1OCCCN1CCOCC1 [Gefitinib]; details: top dose 0.5 µM
Description: as §1

[11] = compound: C=CC(=O)Nc1cc(NC(=O)c2ccc(C)c(NC(=O)c3ccno3)c2)cc(C(F)(F)F)c1 [QL-XI-92]; details: top dose 10.24 µM; top dose inferred
Description: as §1

Cell Line | AUC [1] | pIC50 [1] | AUC [2] | pIC50 [2] | AUC [3] | pIC50 [3] | AUC [4] | pIC50 [4] | AUC [5] | pIC50 [5] | AUC [6] | pIC50 [6] | AUC [7] | pIC50 [7] | AUC [8] | pIC50 [8] | AUC [9] | pIC50 [9] | AUC [10] | pIC50 [10] | AUC [11] | pIC50 [11]
OS-RC-2 (kidney, adherent) | 0.716 | 6.17 | 0.693 | 2.95 | 0.783 | 7.39 | 0.906 | < 5.29 | 0.905 | < 5.70 | 0.969 | < 4.99 | 0.951 | < 5.00 | 0.962 | < 5.30 | 0.89 | < 5.29 | 0.882 | < 6.30 | 0.948 | < 4.99
P30-OHK (lymphoblastic leukaemia, suspension) | 0.991 | < 5.70 | 0.255 | 4.24 | 0.569 | 8.22 | 0.817 | 5.64 | 0.93 | < 5.70 | 0.93 | < 4.99 | 0.965 | < 5.00 | 0.987 | < 5.30 | 0.984 | < 5.29 | 0.99 | < 6.30 | 0.815 | 5.35
PSN1 (pancreas, adherent) | 0.991 | < 5.70 | 0.466 | 3.69 | 0.988 | < 7.19 | 0.918 | < 5.29 | 0.984 | < 5.70 | 0.982 | < 4.99 | 0.991 | < 5.00 | 0.964 | < 5.30 | 0.736 | 5.88 | 0.991 | < 6.30 | 0.911 | < 4.99
RCC10RGB (kidney, adherent) | 0.87 | < 5.70 | 0.919 | < 2.40 | 0.963 | < 7.19 | 0.789 | < 5.29 | 0.934 | < 5.70 | 0.919 | < 4.99 | 0.935 | < 5.00 | 0.945 | < 5.30 | 0.932 | < 5.29 | 0.959 | < 6.30 | 0.955 | < 4.99
RL (B-cell lymphoma, suspension) | 0.99 | < 5.70 | 0.595 | 3.35 | 0.95 | < 7.19 | 0.791 | 5.68 | 0.99 | < 5.70 | 0.987 | < 4.99 | 0.984 | < 5.00 | 0.988 | < 5.30 | 0.99 | < 5.29 | 0.988 | < 6.30 | 0.964 | < 4.99
RPMI-6666 (Hodgkin lymphoma, suspension) | 0.946 | < 5.70 | 0.816 | 2.55 | 0.565 | 8.21 | 0.771 | 5.63 | 0.951 | < 5.70 | 0.901 | < 4.99 | 0.972 | < 5.00 | 0.944 | < 5.30 | 0.633 | 6.09 | 0.957 | < 6.30 | 0.724 | 5.50
Raji (Burkitt lymphoma, suspension) | 0.99 | < 5.70 | 0.477 | 3.66 | 0.854 | 7.34 | 0.984 | < 5.29 | 0.967 | < 5.70 | 0.989 | < 4.99 | 0.963 | < 5.00 | 0.984 | < 5.30 | 0.833 | 5.52 | 0.969 | < 6.30 | 0.959 | < 4.99
SK-LMS-1 (soft tissue, adherent) | 0.987 | < 5.70 | 0.444 | 3.75 | 0.302 | 8.94 | 0.664 | 6.05 | 0.918 | < 5.70 | 0.981 | < 4.99 | 0.98 | < 5.00 | 0.977 | < 5.30 | 0.803 | 5.62 | 0.987 | < 6.30 | 0.915 | < 4.99
SK-MM-2 (myeloma, suspension) | 0.987 | < 5.70 | 0.528 | 3.52 | 0.956 | < 7.19 | 0.879 | < 5.29 | 0.984 | < 5.70 | 0.969 | < 4.99 | 0.987 | < 5.00 | 0.987 | < 5.30 | 0.899 | < 5.29 | 0.987 | < 6.30 | 0.929 | < 4.99
SLVL (B-cell lymphoma, suspension) | 0.976 | < 5.70 | 0.528 | 3.52 | 0.652 | 7.96 | 0.92 | < 5.29 | 0.965 | < 5.70 | 0.969 | < 4.99 | 0.986 | < 5.00 | 0.982 | < 5.30 | 0.765 | 5.71 | 0.985 | < 6.30 | 0.913 | < 4.99
ST486 (Burkitt lymphoma, suspension) | 0.981 | < 5.70 | 0.258 | 4.25 | 0.449 |  | 0.855 | 5.47 | 0.988 | < 5.70 | 0.859 | 5.16 | 0.976 | < 5.00 | 0.981 | < 5.30 | 0.659 | 6.08 | 0.973 | < 6.30 | 0.841 | 5.22
SU-DHL-6 (B-cell lymphoma, suspension) | 0.969 | < 5.70 | 0.376 | 3.90 | 0.436 | 8.55 | 0.878 | 5.53 | 0.879 | 5.93 | 0.984 | < 4.99 | 0.946 | < 5.00 | 0.995 | < 5.30 | 0.601 | 6.25 | 0.995 | < 6.30 | 0.872 | 5.24
SUP-M2 (anaplastic large cell lymphoma, suspension) | 0.99 | < 5.70 | 0.666 | 3.19 | 0.527 | 8.33 | 0.918 | 5.35 | 0.981 | < 5.70 | 0.984 | < 4.99 | 0.99 | < 5.00 | 0.959 | < 5.30 | 0.685 | 6.04 | 0.99 | < 6.30 | 0.572 | 6.02
SUP-T1 (T-cell lymphoblastic leukaemia, suspension) | 0.99 | < 5.70 | 0.553 | 3.46 | 0.518 | 8.35 | 0.928 | < 5.29 | 0.986 | < 5.70 | 0.959 | < 4.99 | 0.949 | < 5.00 | 0.987 | < 5.30 | 0.989 | < 5.29 | 0.978 | < 6.30 | 0.933 | < 4.99
TE-1 (oesophagus, adherent) | 0.596 | 6.61 | 0.86 | < 2.40 | 0.704 | 7.75 | 0.982 | < 5.29 | 0.971 | < 5.70 | 0.978 | < 4.99 | 0.874 | < 5.00 | 0.896 | < 5.30 | 0.735 | 5.74 | 0.943 | < 6.30 | 0.961 | < 4.99
TE-5 (oesophagus, adherent) | 0.843 | 5.76 | 0.802 | 2.63 | 0.68 | 7.86 | 0.984 | < 5.29 | 0.958 | < 5.70 | 0.975 | < 4.99 | 0.97 | < 5.00 | 0.947 | < 5.30 | 0.88 | < 5.29 | 0.973 | < 6.30 | 0.975 | < 4.99
TE-6 (oesophagus, adherent) | 0.803 | 5.92 | 0.81 | 2.59 | 0.864 | < 7.19 | 0.91 | < 5.29 | 0.969 | < 5.70 | 0.939 | < 4.99 | 0.929 | < 5.00 | 0.98 | < 5.30 | 0.795 | 5.55 | 0.86 | < 6.30 | 0.98 | < 4.99
TE-8 (oesophagus, adherent) | 0.94 | < 5.70 | 0.866 | < 2.40 | 0.788 | 7.52 | 0.897 | < 5.29 | 0.973 | < 5.70 | 0.931 | < 4.99 | 0.953 | < 5.00 | 0.903 | < 5.30 | 0.699 | 5.92 | 0.941 | < 6.30 | 0.969 | < 4.99
TE-12 (oesophagus, suspension) | 0.423 | 7.13 | 0.826 | 2.50 | 0.937 | < 7.19 | 0.894 | < 5.29 | 0.95 | < 5.70 | 0.893 | < 4.99 | 0.967 | < 5.00 | 0.977 | < 5.30 | 0.885 | < 5.29 | 0.882 | < 6.30 | 0.94 | < 4.99
WSU-DLCL2 (B-cell lymphoma, suspension) | 0.992 | < 5.70 | 0.839 | 2.68 | 0.992 | < 7.19 | 0.993 | < 5.29 | 0.918 | < 5.70 | 0.992 | < 4.99 | 0.986 | < 5.00 | 0.991 | < 5.30 | 0.903 | 5.33 | 0.984 | < 6.30 | 0.95 | < 4.99
YT (lymphoid neoplasm, suspension) | 0.992 | < 5.70 | 0.059 | > 4.81 | 0.949 | < 7.19 | 0.934 | < 5.29 | 0.751 | 6.24 | 0.992 | < 4.99 | 0.979 | < 5.00 | 0.992 | < 5.30 | 0.989 | < 5.29 | 0.992 | < 6.30 | 0.799 | 5.39
